Results as given in PubChem BioAssay AID686978 (National Center for Advancing Translational Sciences (NCATS), 2013).
The whole screen tested about 420,000 compounds, of which about 64,000 (15%) were called active. The shares of active, inactive and inconclusive entries below differ from those in the screen. The call rests on the fitted dose curve; in most records, active means well fitted inhibition curve with a large enough effect; inconclusive means small, poorly fitted or top-dose-only effect; inactive means flat fitted curve, though single readings scatter. Potencies of inconclusive entries are left out as doubtful fits.

Experiment: qHTS for Inhibitors of human tyrosyl-DNA phosphodiesterase 1 (TDP1): qHTS in cells in absence of CPT; further: nearly all actives have a fitted effect of over 55% in size
Details: DT40 Tdp1-/- hTDP1 cells, no CPT, ATP luminescence, 48 h; activity change, negative = growth inhibition: at 46.2 µM (top of the series)
How it was run: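 Seeded 400 DT40-hTDP1 cells/well (vehicle DMSO, no 20 nM CPT); pinned compounds; ≥48 hr at 37 °C; CellTiter-Glo luminescence as viability measure.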
On the % scale 0 is the no-effect control and ±100 the full control effect; potency means the concentration at half of the fitted maximal effect; tags describe the fitted curve by direction and shape.

SMILES | Potency | activity change, negative = growth inhibition
COc1cccc(Cn2c(-c3nonc3N)nc3ccccc32)c1 | active: 2.91 µM | –
O=C(C1CCCN(Cc2ccccc2C(F)(F)F)C1)N1CCCCC1 (stereo not given) | inconclusive [inhibitor, single point] | –
O=C(C1CCN(C2CCN(C/C(Cl)=C/c3ccccc3)CC2)CC1)N1CCOCC1 | inconclusive [inhibitor, single point] | –
CC1CCC/C(=C(\C#N)c2nc(-c3cc4ccccc4oc3=O)cs2)C1 (stereo not given) | inconclusive [inhibitor, single point] | –
Cc1ccc2[nH]c(=O)c(CN(CCCO)S(=O)(=O)c3c(C)ccc4nsnc34)cc2c1 | inconclusive [inhibitor, partial curve] | –
CC(C)(C)N(C=C(Cl)Cl)C(=O)NC1CCCCC1 | inconclusive [inhibitor, full curve, poor fit] | –
CC1CCC2(CC1)NC(=O)N(CC(=O)NCc1ccc(Cl)cc1)C2=O (stereo not given) | inconclusive [inhibitor, single point] | –
CCN(CC)c1ccc(-c2nn3c(-c4ccccc4OC)nnc3s2)cc1 | active: 1.16 µM | –
Cc1cccc(C)c1NC(=O)C1(C)CSCC(=O)N1CCc1c[nH]c2ccccc12 (stereo not given) | inconclusive [inhibitor, single point] | –
CCCCN(C)CCNC(=O)c1cc(=O)[nH]c2ccc(S(=O)(=O)N3CCCCCC3)cc12 | – | inactive: -1.03%
c1ccc(C[C@H]2CN=C(Nc3ccccc3)N2CC2CCC2)cc1 | inconclusive [inhibitor, single point] | –
COc1ccc(N=C2NC(=O)/C(=C/c3ccc(O)c(OC)c3)S2)cc1 | inconclusive [inhibitor, partial curve] | –
O=S(=O)(c1ccccc1)N1CCN(c2nc(-c3cccs3)nc3ccccc23)CC1 | inconclusive [inhibitor, single point] | –
CC(C)C1Cc2c(sc3c2c(=O)n(Cc2ccccc2)c2nncn32)CO1 (stereo not given) | inconclusive [inhibitor, single point] | –
N#Cc1ccccc1OCC(=O)NCC(c1ccc(F)cc1)N1CCOCC1 (stereo not given) | – | inactive: -15.1%
Cc1cc(=O)oc(C)c1C(=O)OCC(=O)c1ccc2ccccc2c1 | inconclusive [inhibitor, single point] | –
CN(C)CCCNc1nc(-c2ccc(Cl)cc2)nc2ccccc12 | inconclusive [inhibitor, single point] | –
COc1ccccc1-c1c(C)oc2c(CN3CCCC(C)C3)c(O)ccc2c1=O (stereo not given) | – | inconclusive: -17.2% [inhibitor]
COc1ccccc1C(=O)NCc1ccc(-c2nc3ccccc3s2)cc1 | – | inactive: -0.209%
Cc1cc(C)c(NC(=O)CS(=O)CC(=O)Nc2ccc(-n3cnnn3)c(C)c2)c(C)c1 (stereo not given) | inconclusive [inhibitor, partial curve] | –
CCCNC(=O)NCCc1c(C)[nH]c2ccccc12 | – | inactive: -7.01%
CCc1ccccc1N(CC(=O)N1CCCCCC1)S(C)(=O)=O | – | inactive: -0.902%
Oc1ccc(/C=N/Nc2cc(N3CCCC3)nc(N3CCCC3)n2)cc1O | active: 20.6 µM | –

SMILES | Potency | activity change, negative = growth inhibition
COc1ccc(C(=O)OCC(=O)c2ccc[nH]2)c(OC)c1 | – | inactive: -17.8%
OCCOCCNc1ncnc2c1cnn2-c1ccc(Cl)cc1 | inconclusive [inhibitor, partial curve, poor fit] | –
OCCN1CCN(Cc2ccc3c(c2)CN(Cc2cc4ccccc4o2)CCO3)CC1 | – | inactive: -21.4%
COc1cccc(OC)c1C(=O)OCC(=O)N(C)c1ccccc1 | inconclusive [inhibitor, single point] | –
COc1ccc(-c2nc(C(=O)Nc3cccc(C(C)=O)c3)nn2-c2ccc(Cl)cc2)cc1 | inconclusive [inhibitor, partial curve, poor fit] | –
N#CC(=C(c1ccccc1)c1ccccc1)c1ccccc1 | inconclusive [inhibitor, single point] | –
CC(C)CN=Cc1c(O)c([N+](=O)[O-])cc2oc3c(c12)CCCC3 | inconclusive [inhibitor, single point] | –
O=S(=O)(c1ccc(F)cc1)N1CCN(C(=S)NCc2ccccc2)CC1 | inconclusive [inhibitor, single point] | –
COc1ccc(NC(=O)c2oc3ccccc3c2NC(=O)c2cc(=O)c3c(C)cc(C)cc3o2)cc1 | active: 2.91 µM | –
CN1CCN(CCCN2c3ccccc3Sc3ccccc32)CC1 | inconclusive [inhibitor, single point] | –
Nc1cnn(C2OC(CO)C(O)C2O)c(=O)n1 (stereo not given) | – | inactive: -8.94%
CN=C(C)/C(C(=O)OC)=C(/O)c1ccccc1F | – | inactive: 1.42%
COc1cc(C(=O)CCc2ccc3c(c2)OCO3)cc(OC)c1OC | inconclusive [inhibitor, single point] | –
Cc1nc(-n2nc(C)c(Cc3ccccc3Cl)c2C)sc1C(=O)N1CCCCC1C (stereo not given) | active: 20.6 µM | –
CC(C)(C)NC(=O)CSc1nc(-c2ccccc2)c(-c2ccccc2)[nH]1 | inconclusive [inhibitor, single point] | –
CC(NC(=O)COC(=O)c1ccc2c(c1)S(=O)(=O)N=C1CCCCCN12)C12CC3CC(CC(C3)C1)C2 (stereo not given) | inconclusive [inhibitor, single point] | –
COc1ccc(NC(=O)Nc2cccc3c2O[C@H](CN(C)Cc2ccc(-c4ccccc4)cc2)[C@@H](C)CN([C@H](C)CO)C3=O)cc1 | active: 11.6 µM | –
Cc1cccc(CNC(=O)c2cnn(-c3nccc(-c4ccccc4F)n3)c2C)n1 | – | inactive: -1.44%
COCCNC(=O)C(=O)NCC1OCCN1S(=O)(=O)c1ccc(C)cc1 (stereo not given) | – | inactive: 5.1%
COc1ccccc1CNCc1ccc(OC)c2ccccc12 | active: 16.4 µM | –
Cc1ccc(C(=O)OCCN2CCN(c3ncc(C(F)(F)F)cc3Cl)CC2)cc1 | inconclusive [inhibitor, partial curve, poor fit] | –
Cc1ccccc1C(=O)N1CCC(C(=O)OCc2nc(N)nc(Nc3ccccc3)n2)CC1 | – | inconclusive: -30.9% [inhibitor]
